Measurements taken from the supplement of paper PMC3334620.
Whole data set: some 33,000 sequences, median “E-score (-0.5 to 0.5)” near -0.041, cut for the highest 2% near 0.37. The list shows a part of the results.

Molecular target: T1, Ecm22 (UniProt Q05958)
T1 sequence: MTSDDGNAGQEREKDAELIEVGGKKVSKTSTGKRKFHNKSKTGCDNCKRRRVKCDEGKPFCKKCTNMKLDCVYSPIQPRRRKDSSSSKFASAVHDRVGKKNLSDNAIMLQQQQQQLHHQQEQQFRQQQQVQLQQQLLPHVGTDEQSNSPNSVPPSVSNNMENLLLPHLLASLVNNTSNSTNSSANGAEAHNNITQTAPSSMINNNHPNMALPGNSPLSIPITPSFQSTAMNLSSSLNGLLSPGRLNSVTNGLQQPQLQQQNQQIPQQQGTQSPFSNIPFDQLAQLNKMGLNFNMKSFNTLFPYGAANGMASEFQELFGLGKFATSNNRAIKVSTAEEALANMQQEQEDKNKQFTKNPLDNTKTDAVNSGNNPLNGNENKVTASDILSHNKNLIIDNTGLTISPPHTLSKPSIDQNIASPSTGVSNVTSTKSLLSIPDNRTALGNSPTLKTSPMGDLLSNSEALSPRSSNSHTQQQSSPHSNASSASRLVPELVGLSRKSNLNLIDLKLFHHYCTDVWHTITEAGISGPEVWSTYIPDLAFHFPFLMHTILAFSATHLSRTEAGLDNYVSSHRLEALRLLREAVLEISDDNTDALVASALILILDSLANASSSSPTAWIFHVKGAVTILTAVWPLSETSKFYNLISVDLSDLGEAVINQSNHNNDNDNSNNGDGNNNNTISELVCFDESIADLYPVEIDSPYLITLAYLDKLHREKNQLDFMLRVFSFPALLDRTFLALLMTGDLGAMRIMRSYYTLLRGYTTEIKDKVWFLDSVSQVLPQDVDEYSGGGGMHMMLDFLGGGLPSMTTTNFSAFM
Assay: PBM E-score (8-mer binding enrichment) (E-score (-0.5 to 0.5)); higher = stronger / more preferred TF binding; most listed sequences are background and not binding sites
Details: protein concentration: 200 nM; construct: GST-full length
Outline: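 GST-tagged yeast TFs (full-length or DNA-binding domain) were made by PURExpress in vitro transcription/translation and applied at about 100-200 nM to universal all-10-mer Agilent arrays. The arrays were made double-stranded by primer extension, on fresh or once-stripped slides. Bound protein was detected with fluorescent anti-GST, and scans were normalised with masliner. Each ungapped eight-base word, pooled with its reverse complement, received an E-score (modified Wilcoxon-Mann-Whitney statistic) from the Universal PBM Analysis Suite.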

Row | Sequence | PBM E-score
1 | CAGTTTCA | -0.261
2 | CGTCTATC | 0.0638
3 | CGAACTAG | 0.0807
4 | GTACCCAC | 0.0838
5 | ATCACCAA | -0.0324
6 | CCCGGACG | -0.147
7 | AGACCGCC | -0.214
8 | CCCAGAGG | -0.261
9 | CGCATTTA | 0.0806
10 | ATCCCACC | -0.192
11 | TTCCGCAA | 0.0876
12 | AGGCGCAA | -0.0168
13 | ATCCGAAG | 0.235
14 | ATATCCCG | 0.0712
15 | CTCAGATA | 0.0426
16 | AACTTCGA | 0.043
17 | AATAACAT | 0.111
18 | AGAACGTG | -0.0515
19 | CAGGCGCA | -0.24
20 | AAGTATGT | -0.206
21 | CTTATTGC | -0.183
22 | TTGCGCAA | -0.061
23 | TAGGCGGA | -0.0412
24 | AGCAGTGC | -0.187
25 | CGGTGGGC | -0.177

Row | Sequence | PBM E-score
26 | CAACCTTG | -0.22
27 | AATTTACT | -0.0675
28 | ACATCGAC | 0.00478
29 | TAGGGTCA | -0.127
30 | GTCCTACA | -0.0351
31 | GGACGTTA | -0.153
32 | ACTTGATC | -0.226
33 | AGCATAAG | -0.165
34 | ATCACATC | -0.158
35 | AATCTGTA | -0.096
36 | GGTATCCA | 0.0334
37 | AAACATCT | -0.145
38 | ACATCCTG | -0.0643
39 | AACTAGCA | -0.117
40 | GTTGGTCA | -0.0128
41 | AGTAATCG | 0.118
42 | AGACTGCT | -0.156
43 | AGATCTGC | -0.0769
44 | GCGTTCCC | 0.104
45 | ACCATCAC | -0.00767
46 | GCGAACTA | 0.114
47 | AGCATTGC | 0.0233
48 | ACGTTTCA | 0.107
49 | CGGCAAAG | -0.0018
50 | GGGTACAA | -0.0303

Row | Sequence | PBM E-score
51 | CGACCGGC | 0.0856
52 | AGCCTGTA | -0.124
53 | GCGTAAGA | 0.074
54 | AGACGTGC | -0.112
55 | AACGGAGG | 0.193
56 | AAAATCCA | 0.0311
57 | AATAGGCG | -0.0977
58 | GACTACCC | -0.191
59 | CGCCTACC | -0.0639
60 | AACTCTGT | -0.0778
61 | AAAGGCCC | -0.162
62 | AGCATTCA | -0.166
63 | GATGCATC | -0.0161
64 | ATCCATAA | 0.136
65 | ACGGTAAT | 0.112
66 | AGTGATTC | -0.0577
67 | ACATCAGA | -0.0455
68 | AACCTGGC | -0.111
69 | CAGTGAAG | -0.346
70 | CCCCTGGC | -0.188
71 | CGAGATGA | 0.278
72 | ATCTTGGG | -0.307
73 | GGTCACAA | -0.0338
74 | GTAGAGTA | 0.0847
75 | GTCCCAAC | -0.211

Row | Sequence | PBM E-score
76 | GACTAATC | 0.0236
77 | CAAGGTGC | -0.235
78 | ACTAATTC | 0.093
79 | ACCGAATG | 0.141
80 | GCAACACA | -0.135
81 | AACCATGT | -0.0313
82 | AAACGCCG | 0.125
83 | AGTCTAAC | -0.051
84 | ACCTCTGA | -0.0962
85 | GAGAGGGC | -0.21
86 | CAACGGGG | -0.0303
87 | CCGTCAAG | -0.24
88 | AACAATAA | -0.0759
89 | ATCACCAT | -0.0473
90 | CCCAAGGA | -0.332
91 | CTCGCCAC | 0.127
92 | CATTTAAC | 0.0224
93 | GTATCGAC | 0.165
94 | ATTCACCG | 0.0196
95 | AATATAGT | 0.0291
96 | ATAATTGG | -0.0494
97 | ATATGAAA | 0.0588
98 | TATCAGAA | 0.0643
99 | CTGCAGTC | -0.0621
100 | TCCGACCA | 0.16

Row | Sequence | PBM E-score
101 | AGACTATG | -0.107
102 | ATAACCGG | -0.00256
103 | ATGAGTTC | -0.137
104 | GTATTATA | 0.172
105 | AAAAAAAT | -0.0221
106 | TGGTAACA | 0.058
107 | GAAAACGA | 0.306
108 | CTCAGAGC | -0.311
109 | AGAGTAGC | -0.226
110 | AAATTACC | 0.103
111 | GAGAAAAC | -0.0401
112 | ACAAGGCG | -0.0883
113 | TCGCGCAA | 0.195
114 | TTAAATAA | -0.0529
115 | CGTGGAGC | 0.0308
116 | CAGGAATG | -0.269
117 | ATCCGTAA | 0.262
118 | CGCGCCTA | 0.213
119 | GAGCAGAA | 0.0227
120 | ACTTGGAT | 0.0163
121 | GGATAGGA | 0.0428
122 | TGAGTAAA | -0.13
123 | AACTCGGG | 0.116
124 | ACCCGCGA | -0.0189
125 | AGATGTCG | 0.178

Row | Sequence | PBM E-score
126 | GGCAACCC | -0.243
127 | CATGGTCG | 0.101
128 | CCTAAGAC | -0.157
129 | AGGCGGCA | -0.33
130 | CAACACTA | -0.0848
131 | AACACATT | 0.00652
132 | AGTTGTCG | 0.0741
133 | ACTATGCT | 0.0226
134 | GAAATGGA | -0.147
135 | AAGTACAG | -0.254
136 | AGTTGATG | 0.00744
137 | CCTGGGTC | -0.281
138 | AATCGTTC | 0.426
139 | ATCTGAAG | -0.253
140 | AAATTGCT | -0.0414
141 | CGCAGCAA | -0.0983
142 | ACCCACAC | -0.0347
143 | ATCCCAAG | -0.291
144 | GGGCGCTA | -0.225
145 | ATCTTATC | 0.0565
146 | CGTCCAAG | -0.249
147 | TGTCTAAA | 0.0287
148 | CATAGATG | -0.127
149 | GGAGAGCA | -0.131
150 | GAGGGCGC | -0.127

Row | Sequence | PBM E-score
151 | GACGCAGA | 0.164
152 | GAGTTAAA | -0.0938
153 | GGAAGGAC | -0.178
154 | GGGACTAC | -0.169
155 | CTGATTAA | 0.0488
156 | CTTTTCAC | -0.169
157 | CTTGGTAC | 0.226
158 | AATATGCC | -0.0852
159 | CGAGCGGA | 0.33
160 | CAGTAATA | 0.142
161 | CAATGCAC | -0.087
162 | CCACAGTA | -0.03
163 | ACGGGCAG | 0.115
164 | ATTTGTTA | 0.0317
165 | GAGATTAA | 0.0376
166 | AGAGGCTC | -0.0214
167 | CATTAATG | 0.0748
168 | ACCCTCTA | -0.176
169 | CATCTTTA | 0.0521
170 | AAAATTAT | 0.0722
171 | AACTGCGT | 0.0886
172 | ACATGGAT | -0.196
